# About 4,500 (2.2%) of roughly 200,000 compounds were called active. This list was built around the results that the source calls inconclusive (neither active nor inactive); the mix of calls is not that of the screen. Calls follow the shape of the dose curve; as a rule, active = well fitted inhibition curve with a large enough effect; inconclusive = small, poorly fitted or top-dose-only effect, or effect the other way; inactive = flat fitted curve, though single readings scatter. A potency beside an inconclusive call is a rough fit, not a confirmed value.
# Target: Cruzipain (Trypanosoma cruzi) (UniProt P25779)
# Test: qHTS Assay for Promiscuous and Specific Inhibitors of Cruzain (without detergent); also: nearly all actives have a fitted effect of over 40% in size;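 as to max response, negative = inhibition: plate controls were enzyme without inhibitor for no effect and buffer without enzyme for full effect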
# Settings: purified cruzain, Z-FR-AMC fluorescence, no detergent
# Summary of the method: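 Purified cruzain at 1.5 nM, pre-incubated 15 min with compound at room temperature in 100 mM sodium acetate pH 5.5, 5 mM DTT, 0.00005% Triton X-100. Reaction started with 2 uM Z-FR-AMC; AMC fluorescence increase over 60 s gives rate.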
# Potency is read from the fitted curve at half-maximal effect; tags tell the direction and shape of the fitted curve.
# Sequence of UniProt P25779 (P25779 whole entry, looked up): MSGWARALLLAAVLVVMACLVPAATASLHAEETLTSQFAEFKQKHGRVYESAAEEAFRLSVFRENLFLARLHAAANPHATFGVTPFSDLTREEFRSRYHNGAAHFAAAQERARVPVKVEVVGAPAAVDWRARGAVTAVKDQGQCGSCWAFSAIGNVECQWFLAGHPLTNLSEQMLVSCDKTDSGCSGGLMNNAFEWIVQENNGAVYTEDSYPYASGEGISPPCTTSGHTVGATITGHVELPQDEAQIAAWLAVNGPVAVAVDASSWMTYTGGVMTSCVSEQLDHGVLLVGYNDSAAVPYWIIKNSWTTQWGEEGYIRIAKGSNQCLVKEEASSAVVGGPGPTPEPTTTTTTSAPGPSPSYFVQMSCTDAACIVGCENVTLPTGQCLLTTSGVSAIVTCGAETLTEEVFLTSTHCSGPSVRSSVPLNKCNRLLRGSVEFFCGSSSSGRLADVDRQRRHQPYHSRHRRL
SMILES,Potency,"max response, negative = inhibition"
COc1cc([N+](=O)[O-])ccc1NC(=O)N1CCC2(CC1)Nc1ccccc1-n1cccc12,active: 25.1 µM,–
CCNc1ncc2ncc(=O)n(Cc3ccc(F)cc3)c2n1,–,inactive: -4.16%
CCCCOc1ccc(C(=O)NCC(=O)OC2CCOC2=O)cc1 (stereo not given),"inconclusive: 15.8 µM [inhibitor, partial curve]",–
CCn1c(CNC(=O)COc2ccc(C(C)C)cc2)nnc1SCC(=O)Nc1ccccc1C(C)C,"inconclusive: 31.6 µM [activator, single point]",–
Cc1ccc(S(=O)(=O)Nc2cc(-c3nn(C)c(=O)c4ccccc34)ccc2N2CCOCC2)cc1,"inconclusive: 39.8 µM [activator, single point]",–
CCOc1ccccc1N(CC(=O)N/N=C/c1cc(Br)ccc1OC)S(C)(=O)=O,"inconclusive: 31.6 µM [activator, single point]",–
Cn1c(=O)[nH]c(=O)c2c1nc(CN1CCN(c3ccccc3)CC1)n2Cc1c(F)cccc1Cl,–,inactive: 1.02%
COc1ccccc1N1CCN(C2=NS(=O)(=O)c3ccccc32)CC1,–,inactive: -6.92%
CC(C)CCNC(=O)c1cc(-c2ccc(Br)s2)nc2ccccc12,active: 3.16 µM,–
CNC(=S)N/N=C/c1cn(Cc2ccc(F)cc2)c2ccccc12,"inconclusive: 39.8 µM [inhibitor, single point]",–
Cc1c(C(=O)NCc2cccc(F)c2)oc2c1-c1[nH]ncc1CC2,"inconclusive: 25.1 µM [inhibitor, single point]",–
CC(NC(=O)c1ccc(CS(=O)(=O)c2cccc(C(F)(F)F)c2)o1)c1ccc2c(c1)OCCO2 (stereo not given),"inconclusive: 31.6 µM [activator, single point]",–
CCN(CC)C(=O)c1ccc2c(c1)N(Cc1ccccc1F)C(=O)c1ccccc1S2=O (stereo not given),"inconclusive: 39.8 µM [activator, single point]",–
NS(=O)(=O)c1ccc(NC(=S)Nc2nn(Cc3ccc(Cl)cc3Cl)cc2Cl)cc1,"inconclusive: 25.1 µM [inhibitor, single point]",–
COc1ccc2c(c1)O[C@@H](c1ccc3c(c1)OCO3)[C@H](OC(=O)Nc1cc(OC)c(OC)c(OC)c1)C2=O,"inconclusive: 39.8 µM [activator, single point]",–
C=CCNC(=O)/C(C#N)=C/c1cn(-c2ccccc2)nc1-c1ccc(OC)c([N+](=O)[O-])c1,"inconclusive: 25.1 µM [activator, single point]",–
COc1ccc(NC(=O)CCC(=O)OC(C(=O)c2ccccc2)c2ccccc2)cc1 (stereo not given),–,inactive: -8.4%
Cc1c(C(=O)NC(=S)Nc2ccccc2N2CCCC2)cccc1[N+](=O)[O-],"inconclusive: 25.1 µM [inhibitor, single point]",–
COc1ccc(-c2nn(-c3ccc(C)c(Cl)c3)c3c2cnc2cc(OC)c(OC)cc23)cc1,–,inactive: -2.21%
Cc1cccc(NC(=O)CSc2nc3ccc(N4C(=O)c5ccccc5C4=O)cc3s2)c1C,"inconclusive: 39.8 µM [inhibitor, single point]",–

SMILES,Potency,"max response, negative = inhibition"
CCN(C1CCS(=O)(=O)C1)S(=O)(=O)c1cccs1 (stereo not given),"inconclusive: 1.26 µM [inhibitor, single point]",–
Cc1c(C(=O)NCc2cccnc2)oc2ccc(S(=O)(=O)N3CCCCCC3)cc12,"inconclusive: 25.1 µM [activator, single point]",–
Cc1nnc(NC(=O)CSc2nc3c(c(=O)n2CCc2ccccc2)SC(C)C3)s1 (stereo not given),"inconclusive: 39.8 µM [inhibitor, single point]",–
CCCCOc1ccc(CNC(=O)CN2C(=O)CCn3nc(-c4cn(C)c5ccccc45)cc32)cc1,"inconclusive: 12.6 µM [activator, partial curve]",–
CCOC(=O)C1=C(C)N=C2SC(C)C(=O)N2C1/C=C/c1ccccc1OC (stereo not given),"inconclusive: 39.8 µM [inhibitor, single point]",–
COc1ccc(C2CC(=O)c3cc(-c4nc(-c5ccc(C)cc5)cs4)c(=O)[nH]c3C2)cc1 (stereo not given),"inconclusive: 20 µM [inhibitor, partial curve, poor fit]",–
CC(C)c1ccc(NC(=O)Cc2ccc(NC(=O)N3CCCCc4ccccc43)cc2)cc1,–,inactive: -18.8%
O=c1c(CCc2ccccc2)nc2cncnc2n1Cc1ccccc1Cl,active: 3.16 µM,–
CNc1ccc(S(=O)(=O)NCC(=O)OCC(=O)Nc2cccc(Cl)c2Cl)cc1[N+](=O)[O-],"inconclusive: 39.8 µM [inhibitor, single point]",–
C=CCn1cc(C(=O)NCc2ccc3c(c2)OCO3)c(=O)c2cc(S(=O)(=O)N(CC)CC)ccc21,"inconclusive: 20 µM [activator, partial curve]",–
O=C(NCc1ccccn1)c1cc(-c2ccc(Br)cc2)nc2ccccc12,"inconclusive: 39.8 µM [activator, single point]",–
CCOc1ccc(NC(=O)C2=C(C)C(=O)OC23CCC(C)CC3)cc1 (stereo not given),"inconclusive: 31.6 µM [activator, single point]",–
O=c1c2ccccc2nc(-c2cccs2)n1-c1ccc2ccccc2c1,"inconclusive: 39.8 µM [inhibitor, single point]",–
CCc1nn(CC(=O)NCCc2ccc(OC)c(OC)c2)c(=O)c2cc3occc3n12,"inconclusive: 1 µM [activator, single point]",–
Cc1cc2nnc(SC3CCCCN(C(=O)c4ccc(F)cc4)C3=O)n2c2ccccc12 (stereo not given),"inconclusive: 39.8 µM [activator, single point]",–
COc1ccc(C2CC(=O)C3=C(C2)Nc2ccccc2NC3c2coc3ccccc3c2=O)cc1OC (stereo not given),"inconclusive: 39.8 µM [activator, single point]",–
COc1cccc(NC(=S)N(CCc2c(C)[nH]c3ccccc23)Cc2cccs2)c1,"inconclusive: 39.8 µM [inhibitor, single point]",–
CS(=O)(=O)Nc1ccc(-c2nc3ccccc3s2)cc1,–,inactive: -6.26%
COCCCn1c(SCc2cccc(OC)c2)nc2cc(OC)c(OC)cc2c1=N,"inconclusive: 39.8 µM [activator, single point]",–
O=C(CSc1ncc2c(n1)-c1cc(Cl)ccc1N(Cc1ccccc1)S2(=O)=O)NCCc1ccccc1,–,inactive: 5.83%

SMILES,Potency,"max response, negative = inhibition"
CCOc1ccc(NC(=O)CC2C(=O)N(c3ccc(OC)cc3)C(=O)N2C2CCCCC2)cc1 (stereo not given),"inconclusive: 31.6 µM [activator, single point]",–
COc1ccccc1-c1cc(C(=O)N/N=C/c2sccc2C)c2ccccc2n1,"inconclusive: 39.8 µM [inhibitor, single point]",–
CCOc1ccc2nc(NC(=O)Cn3cnc4c3c(=O)n(C)c(=O)n4C)sc2c1,"inconclusive: 39.8 µM [activator, single point]",–
OC(CNCC1CCCO1)Cn1c2ccc(Cl)cc2c2cc(Cl)ccc21 (stereo not given),"inconclusive: 31.6 µM [inhibitor, single point]",–
Cn1ncc(Br)c1C(=O)N/N=C/c1ccc(OS(=O)(=O)c2ccccc2)cc1,"inconclusive: 39.8 µM [activator, single point]",–
Cc1ccc(C)c(SCC(=O)OCC(=O)Nc2ccc(S(=O)(=O)N3CCOCC3)cc2)c1,"inconclusive: 39.8 µM [activator, single point]",–
COC(=O)c1ccc2c(=O)n(CCCCCC(=O)N3CCN(c4cc(C)ccc4C)CC3)c(=O)[nH]c2c1,–,inactive: 9.55%
Cc1nn(-c2ccccc2)c2sc(C(=O)Nc3cccc(Cl)c3)cc12,"inconclusive: 39.8 µM [inhibitor, single point]",–
Cc1cccc(C(=O)OCC(=O)Nc2nccs2)c1,"inconclusive: 39.8 µM [inhibitor, single point]",–
CCC(=O)N1CCc2cc(CNS(=O)(=O)c3ccc(C(C)C)cc3)ccc21,"inconclusive: 1.58 µM [inhibitor, partial curve]",–
COCc1cc(C)nc2sc(C(=O)Nc3ccc(C(C)=O)cc3)c(N)c12,"inconclusive: 39.8 µM [activator, single point]",–
Cc1cc(OCc2ccc([N+](=O)[O-])cc2)c2c3c(c(=O)oc2c1)CCCC3,active: 12.6 µM,–
CCCCNC(=O)c1cc2n(n1)C(C(F)(F)F)CC(c1ccccc1)N2 (stereo not given),"inconclusive: 6.31 µM [inhibitor, single point]",–
Cc1nc2c3ccccc3nc(NNC(=O)CCC(=O)N3CCN(c4cc(Cl)ccc4C)CC3)n2n1,"inconclusive: 39.8 µM [activator, single point]",–
O=C(C1CCN(S(=O)(=O)c2ccc3ccccc3c2)CC1)N1CCN(c2ncccn2)CC1,"inconclusive: 31.6 µM [activator, single point]",–
CCOC(=O)c1cc(-c2ccccc2)sc1NC(=O)CCN1C(=O)c2ccccc2C1=O,"inconclusive: 39.8 µM [inhibitor, single point]",–
CCCCn1c(N)c(-c2nc3ccccc3o2)c2c([N+](=O)[O-])nn(CC)c(=O)c21,"inconclusive: 25.1 µM [inhibitor, partial curve]",–
CCc1ccccc1NC(=O)c1ccc(Cn2nc(N3CCN(c4ccccc4)CC3)ccc2=O)o1,"inconclusive: 39.8 µM [activator, single point]",–
COc1cc2c(cc1OC)C1(Nc3c-2c(Cc2ccccc2)nn3-c2ccccc2)C(=O)Nc2ccccc21 (stereo not given),"inconclusive: 5.01 µM [inhibitor, full curve]",–
O=C(Nc1nc(-c2ccccc2)cs1)c1ccc(N2CCOCC2)c([N+](=O)[O-])c1,"inconclusive: 25.1 µM [inhibitor, single point]",–
